# Out of some 410,000 compounds screened, about 7,200 (1.8%) were called active. This list was built around the results that the source calls inconclusive (neither active nor inactive); the mix of calls is not that of the screen. Calls come from the whole dose curve; as a rule, active = well fitted activation curve with a large enough effect; inconclusive = small, poorly fitted or top-dose-only effect, or another doubt; inactive = no such curve, though single readings can be large or run the other way. No potency is given beside an inconclusive call; the fits are too rough.
# Assay: qHTS of TDP-43 Inhibitors; note: nearly all actives have a fitted effect of over 50% in size; for growth rescue (activation): % of control where 0% means no effect
# Conditions: TDP-43 expressing yeast growth rescue, BacTiter-Glo, 24 h; growth rescue (activation): at 46.1 µM (top of the series) unless noted
# Summary of the method: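 Readout is BacTiter-Glo luminescence of cell growth, so inhibitors register as activators. TDP-43-expressing yeast at OD600=0.02 in galactose medium, after raffinose pregrowth to mid-log, were incubated with compound for 24 hr at 30 deg C.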
# Potency is the fitted concentration of half-maximal effect; tags give direction and shape of the fitted curve.
SMILES,Potency,growth rescue (activation)
O=C1CCN(Cc2ccc([N+](=O)[O-])cc2)CCN1[C@H](CO)c1ccccc1,"inconclusive [activator, partial curve]",
O=C(O)c1cccc(COc2ccc3c(c2)CCC3)c1,"inconclusive [activator, partial curve]",
Cc1ccc(C(=O)NNC(=O)C(C)Oc2ccccc2F)cc1S(=O)(=O)N1CCOCC1 (stereo not drawn),,inactive: -5.47%
CCC(OC(=O)c1cccs1)C(=O)NCc1ccc2c(c1)OCO2 (stereo not drawn),"inconclusive [activator, single point]",
Cc1ccccc1-c1nn2c(-c3ccccc3)nnc2s1,"inconclusive [activator, single point]",
C=CCOc1ccc(C(=O)/C=C2/C(=O)Nc3ccccc32)cc1,"inconclusive [activator, full curve]",
COc1ccc(-c2cc3nc(C)c(CCC(=O)N4CCN(c5ccc(F)cc5)CC4)c(C)n3n2)c(OC)c1,"inconclusive [activator, single point]",
COC(=O)c1cc(Sc2c(Cl)cccc2Cl)ccn1,"inconclusive [activator, single point]",
Cc1ccc(Nc2nc3ccccc3c3nnc(C)n23)c(C)c1,"inconclusive [activator, partial curve]",
Cc1ccc(S(=O)(=O)/N=C(/Sc2ccccc2C(=O)O)c2ccccc2)cc1,"inconclusive [activator, partial curve, poor fit]",
CCNc1nc(Cl)nc(NC2CCCCC2)n1,active: 12.6 µM,
Cc1ccccc1C(=O)OCc1cc(=O)n2nc(C(C)C)sc2n1,"inconclusive [activator, single point]",
Cn1c(NCc2ccc3occc3c2)nc2cc(-c3ccc(F)cc3)sc2c1=O,"inconclusive [activator, partial curve]",
Cc1ccccc1OCCCn1c(=O)sc2ccccc21,"inconclusive [activator, single point]",
CC(C)C(=O)N1CCN(c2ccc(NC(=O)c3ccc([N+](=O)[O-])o3)cc2)CC1,"inconclusive [activator, single point]",
CC(=O)c1cccc(NC(=O)Nc2nnc(N3CCCC3)s2)c1,,inactive: 19% [at 9.22 µM]
COc1cccc(NS(=O)(=O)c2c(C)cc(C)cc2C)c1,"inconclusive [activator, single point]",
CCCOc1ccc(CNC(=O)c2ccc(C)c(-n3c(C)nc4cccnc43)c2)cc1,,inactive: 9.13%
